Measurements: patent publication US20130203661A1 (AEGERION PHARMACEUTICALS, published 2013)

Tests used:
[1] = target: T1, chimeric Leptin (Hu)-EPO (Mu) receptor presented by the 32D OBECA cell line (human; murine, UniProt P48357 22-839; P14753 250-507); assay: Obeca cell binding: displacement of 125I-murine leptin from 32D OBECA cell membranes
T1 construct: Chimera of human leptin receptor and murine EPO receptor on 32D OBECA / 32D-Keptin cells; 273(29): 18365-18373; also called chimeric Hu-Leptin/Mu-EPO receptor
T1 sequence (looked up): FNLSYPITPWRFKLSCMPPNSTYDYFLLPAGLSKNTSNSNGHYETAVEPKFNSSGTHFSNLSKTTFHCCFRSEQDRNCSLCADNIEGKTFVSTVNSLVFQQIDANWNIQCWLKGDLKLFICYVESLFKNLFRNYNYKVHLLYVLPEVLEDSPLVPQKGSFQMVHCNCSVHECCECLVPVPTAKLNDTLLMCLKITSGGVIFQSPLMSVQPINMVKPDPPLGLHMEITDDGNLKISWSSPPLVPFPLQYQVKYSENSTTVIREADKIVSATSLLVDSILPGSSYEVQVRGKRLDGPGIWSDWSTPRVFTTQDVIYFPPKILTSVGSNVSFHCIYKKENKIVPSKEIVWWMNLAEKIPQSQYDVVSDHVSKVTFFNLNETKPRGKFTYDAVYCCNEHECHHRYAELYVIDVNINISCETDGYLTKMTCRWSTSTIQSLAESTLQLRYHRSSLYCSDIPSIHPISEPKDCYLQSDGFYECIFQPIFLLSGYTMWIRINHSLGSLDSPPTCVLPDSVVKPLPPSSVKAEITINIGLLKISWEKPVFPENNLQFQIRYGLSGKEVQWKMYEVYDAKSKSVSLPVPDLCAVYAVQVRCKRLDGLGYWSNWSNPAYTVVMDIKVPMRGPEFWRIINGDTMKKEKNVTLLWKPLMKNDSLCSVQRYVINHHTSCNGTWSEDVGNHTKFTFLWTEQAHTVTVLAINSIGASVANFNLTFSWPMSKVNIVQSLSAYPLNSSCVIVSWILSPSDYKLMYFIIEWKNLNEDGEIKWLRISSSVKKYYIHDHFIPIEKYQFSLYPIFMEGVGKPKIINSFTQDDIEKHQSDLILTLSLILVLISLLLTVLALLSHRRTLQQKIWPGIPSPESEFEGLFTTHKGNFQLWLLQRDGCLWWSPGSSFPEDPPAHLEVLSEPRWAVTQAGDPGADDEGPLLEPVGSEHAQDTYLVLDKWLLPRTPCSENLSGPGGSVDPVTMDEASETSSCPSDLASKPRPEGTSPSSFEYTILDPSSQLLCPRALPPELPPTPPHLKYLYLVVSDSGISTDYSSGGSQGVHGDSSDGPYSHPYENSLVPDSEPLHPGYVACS

[2] = target: T1, chimeric Leptin (Hu)-EPO (Mu) receptor …; assay: cell-based or functional assay

B1: Mature Human Leptin form 1 with N-terminal methionine (also known as Metreleptin, or A100) (ligand)
chain: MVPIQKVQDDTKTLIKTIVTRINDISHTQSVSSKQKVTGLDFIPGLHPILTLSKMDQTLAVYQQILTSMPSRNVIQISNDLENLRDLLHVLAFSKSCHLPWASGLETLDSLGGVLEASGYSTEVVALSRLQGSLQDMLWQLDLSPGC
notes: Mature human leptin with an added N-terminal methionine; also called Compound 37; Cmpd 37
In the case of B1, the IC50 [1] is reported as 0.2 to 0.8 nM and the “EC50 (Obeca Stat 5 functional assay)” value [2] is reported as 0.02 nM.
